In PubChem BioAssay (Tox21):
Results filed as inconclusive are left out. Calls come from the whole dose curve; as a rule, active = well fitted curve in the direction sought with a large enough effect in the repeat runs; inconclusive = weak or mixed curves; inactive = no such curve, though single readings can be large; an effect the other way counts as inactive or inconclusive. Some compounds were tested as several samples or in several runs, with calls that do not always agree. Not every entry of the source has a single result; some have several. The list is limited to them. An entry can have further records. Values that stand side by side repeat one measurement across runs, samples, wells, individuals or studies. Brackets tell where a record comes from. Letters count within one entry.

Legend:
[1] = qHTS assay to identify small molecule antagonists of the thyroid receptor (TR) signaling pathway (AID 743065); note: nearly all actives have a fitted effect of over 55% in size
Method in brief: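 GH3.TRE-Luc rat pituitary cells (two TREs driving luciferase) were dosed with compound, then stimulated with 1 nM T3 (final) for 23.5 h at 37 C. ONE-Glo luminescence was the read-out, with CellTiter-Fluor fluorescence as the cytotoxicity counter-screen.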

[2] = qHTS assay to identify small molecule antagonists of the glucocorticoid receptor (GR) signaling pathway - cell viability counter screen (AID 720693); note: nearly all actives have a fitted effect of over 55% in size
[3] = molecular target: Androgen receptor (Homo sapiens) (UniProt P10275); test: qHTS assay to identify small molecule agonists of the androgen receptor (AR) signaling pathway using the MDA cell line (AID 743040; note: nearly all actives have a fitted effect of over 20% in size)
[4] = A CellTox Green Cytotoxicity Assay to monitor cytotoxicity in HEK293 cells - 16 hour (AID 1224888); note: nearly all actives have a fitted effect of over 35% in size
Method in brief: (§1)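 Nonlytic real-time cytotoxicity: HEK293 + CellTox Green reagent plated, 5 h preincubation, pintool compound addition (23 nL in DMSO), 37 C for 40 h, fluorescence measured at successive time points.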

[5] = qHTS assay to identify small molecule agonists of the constitutive androstane receptor (CAR) signaling pathway - cell viability counter screen (AID 1224836); note: nearly all actives have a fitted effect of over 45% in size
Method in brief: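 Counter screen multiplexed with the CAR reporter readout: HepG2 cells co-transfected with hCAR and the CYP2B6-2.2kb construct receive a 15-concentration compound series and 0.75 uM PK11195 (final), then CellTiter-Fluor fluorescence is read after 23 h.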

[6] = qHTS assay to identify small molecule antagonists of the constitutive androstane receptor (CAR) signaling pathway - cell viability counter screen (AID 1224837); note: nearly all actives have a fitted effect of over 45% in size
Method in brief: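 HepG2-CYP2B6-hCAR cells, 2500/well, 4 hr pre-incubation; compound titration, 15 conc.; CITCO 50 nM final; 23 hr, 37 C/5% CO2; CellTiter-Fluor, fluorescence intensity.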

[7] = qHTS assay to identify small molecule antagonists of the progesterone receptor (PR) signaling pathway - cell viability counter screen (AID 1346798); note: nearly all actives have a fitted effect of over 50% in size
Method in brief: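 Same-well multiplex: after 16 hr at 37C with compound and R5020 stimulation, HEK293T cells carrying a UAS-bla reporter received LiveBLAzer substrate (2 hr RT), then CellTiter-Glo (30 min RT) for luminescent viability.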

[8] = A CellTox Green Cytotoxicity Assay to monitor cytotoxicity in HEK293 cells - 24 hour (AID 1224875); note: nearly all actives have a fitted effect of over 45% in size
Method in brief: as §1

[9] = qHTS assay to identify small molecule antagonists of the estrogen receptor alpha (ER-alpha) signaling pathway using the BG1 cell line in the presence of 0.1 nM 17-beta-estradiol - cell viability counter screen (AID 1259241); note: nearly all actives have a fitted effect of over 40% in size
Source text: National Center for Advancing Translational Sciences [NCATS]
NIH Chemical Genomics Center [NCGC]
U.S. Environmental Protection Agency [EPA]
National Institutes of Environmental Health Sciences [NIEHS]
National Toxicology Program [NTP]
U.S. Food and Drug Administration [FDA]
Estrogen receptor (ER), a member of the nuclear hormone receptor plays an important role in development, metabolic homeostasis and reproduction. Two subtypes of ER, ER-alpha and ER-beta, have similar expression patterns with some uniqueness in both types. Endocrine disrupting chemicals (EDCs) and their interactions with steroid hormone receptors like ER causes disruption of normal endocrine function. Therefore, it is important to understand the effect of environmental chemicals in ER signaling pathway. For identifying ER antagonists, VM7Luc4E2 cell line was used to screen against Tox21 compound libraries. […]
VM7Luc4E2 cells were cultured in phenol red free assay medium containing 10% charcoal stripped FBS for 5 days prior to the assay. […] For cytotoxicity assay, 1 uL of CellTiter-Fluor reagent (Promega Corporation, Madison, WI) was added to each well using the FRD and after 30 min incubation at 37C and 5% CO2, The fluorescence intensity was measured using ViewLux plate reader (PerkinElmer, Shelton, CT).
Potency is the fitted concentration of half-maximal effect.

UniProt P10275, sequence (P10275 whole entry, looked up): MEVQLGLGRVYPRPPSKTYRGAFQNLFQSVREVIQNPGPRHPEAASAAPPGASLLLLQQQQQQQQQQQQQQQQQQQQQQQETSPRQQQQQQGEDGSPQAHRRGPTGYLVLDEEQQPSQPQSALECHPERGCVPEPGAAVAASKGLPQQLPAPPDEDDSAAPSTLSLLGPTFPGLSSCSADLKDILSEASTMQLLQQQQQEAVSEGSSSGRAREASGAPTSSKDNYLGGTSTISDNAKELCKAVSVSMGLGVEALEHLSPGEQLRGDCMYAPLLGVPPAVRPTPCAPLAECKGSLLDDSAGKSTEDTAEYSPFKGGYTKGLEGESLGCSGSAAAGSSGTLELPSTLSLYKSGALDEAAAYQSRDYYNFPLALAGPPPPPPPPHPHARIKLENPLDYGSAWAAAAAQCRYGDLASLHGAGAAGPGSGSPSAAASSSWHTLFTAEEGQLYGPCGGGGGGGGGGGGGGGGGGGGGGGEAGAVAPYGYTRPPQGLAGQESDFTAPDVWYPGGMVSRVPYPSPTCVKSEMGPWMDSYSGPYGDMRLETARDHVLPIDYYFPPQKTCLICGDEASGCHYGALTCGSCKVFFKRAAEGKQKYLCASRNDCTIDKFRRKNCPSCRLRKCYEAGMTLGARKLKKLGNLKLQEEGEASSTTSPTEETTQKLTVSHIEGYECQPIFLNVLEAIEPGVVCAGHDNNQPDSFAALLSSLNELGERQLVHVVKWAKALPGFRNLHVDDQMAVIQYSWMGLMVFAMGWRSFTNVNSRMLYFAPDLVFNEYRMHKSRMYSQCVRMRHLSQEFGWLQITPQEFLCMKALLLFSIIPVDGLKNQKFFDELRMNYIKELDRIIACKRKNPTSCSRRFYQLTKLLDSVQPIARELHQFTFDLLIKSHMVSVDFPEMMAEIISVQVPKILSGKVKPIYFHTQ

Oc1ccc(/C=C/c2cc(O)cc(O)c2)cc1
Potency [1]: inactive [sample A] and active: 24.6 µM [sample B] and active: 27.3 µM [sample C]

N=C(N)c1ccc(OCCCCCOc2ccc(C(=N)N)cc2)cc1
Potency [2]: inactive [sample A] and active: 48.8 µM [sample B]

CCCN(CCC)S(=O)(=O)c1ccc(C(=O)O)cc1
Potency [3]: active: 26.6 µM [sample A] and inactive [sample B] and inactive [sample C]

CC(O)CN(CCN(CC(C)O)CC(C)O)CC(C)O (stereo unspecified)
Potency [4]: inactive [sample A] and inactive [sample B] and active: 2.39 µM [sample C]

O=C(O)c1cc(N=Nc2ccc(S(=O)(=O)Nc3ccccn3)cc2)ccc1O
Potency [5]: active: 27.4 µM [sample A] and active: 27.3 µM [sample B] and inactive [sample C] | Potency [6]: active: 30.7 µM [sample A] and active: 24.3 µM [sample B] and inactive [sample C]

Cn1cc[nH]c1=S
Potency [7]: active: 21.7 µM [sample A] and inactive [sample B] and inactive [sample C]

Cc1cc(=O)n(-c2ccccc2)n1C
Potency [8]: active: 44.8 µM [sample A] and inactive [sample B] and inactive [sample C] | Potency [4]: active: 40 µM [sample A] and inactive [sample B] and inactive [sample C]

c1ccc2[nH]ccc2c1
Potency [5]: active: 16.9 µM [sample A] and inactive [sample B] and inactive [sample C] | Potency [6]: active: 21.3 µM [sample A] and inactive [sample B] and inactive [sample C] | Potency [8]: active: 12.1 µM [sample A] and inactive [sample B] and inactive [sample C] | Potency [4]: active: 19.2 µM [sample A] and inactive [sample B] and inactive [sample C] | Potency [9]: active: 47.8 µM [sample A] and inactive [sample B] and inactive [sample C] | Potency [7]: active: 30.1 µM [sample A] and inactive [sample B] and inactive [sample C]

O=C(c1ccccc1)c1ccccc1
Potency [3]: active: 26.6 µM [sample A] and inactive [sample B] and inactive [sample C]
